The full ranking holds about 33,000 sequences; the median of “E-score (-0.5 to 0.5)” is about -0.017, and the highest 2% start at about 0.3. This is one part of the list.
Molecular target: T1, Sut1 (UniProt P53032)
T1 sequence: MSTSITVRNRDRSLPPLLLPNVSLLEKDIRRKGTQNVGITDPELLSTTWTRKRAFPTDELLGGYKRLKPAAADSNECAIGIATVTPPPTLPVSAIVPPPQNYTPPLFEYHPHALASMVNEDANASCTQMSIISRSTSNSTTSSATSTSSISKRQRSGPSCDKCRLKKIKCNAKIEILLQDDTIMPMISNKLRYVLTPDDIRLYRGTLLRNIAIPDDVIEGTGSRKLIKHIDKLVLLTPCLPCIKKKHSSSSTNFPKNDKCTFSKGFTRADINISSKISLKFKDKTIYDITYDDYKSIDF
Assay: PBM E-score (8-mer binding enrichment) (E-score (-0.5 to 0.5)); higher = stronger / more preferred TF binding; most listed sequences are background and not binding sites
Settings: protein concentration: 200 nM; construct: GST-full length
In short: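 Universal all-10-mer Agilent arrays, fresh or stripped once, were converted to double-stranded form by primer extension. GST-tagged yeast transcription factors from PURExpress in vitro transcription/translation, full-length or DNA-binding domain only, were applied at about 100-200 nM and detected with fluorescent anti-GST. After masliner normalisation, the Universal PBM Analysis Suite scored each ungapped eight-base word together with its reverse complement by E-score.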

| Sequence | PBM E-score |
| --- | --- |
| GGAAGCGA | 0.0434 |
| ACCGGCTA | -0.126 |
| ATGTCCGG | 0.451 |
| AGAAACGC | 0.0494 |
| AAAGACTC | 0.026 |
| CCATGCCG | -0.142 |
| GTGTTAAA | 0.0268 |
| ATATTAGA | 0.177 |
| GGCAGGTA | -0.154 |
| CCAAGGTA | -0.171 |
| AATGGAGG | -0.0978 |
| AGATATAC | 0.0915 |
| ATAGAGCC | -0.12 |
| ACAGGAGG | -0.159 |
| GCGACGGA | 0.183 |
| ATATCGTA | 0.0812 |
| GTTAGGTA | 0.133 |
| AAGGACAG | 0.0195 |
| CTGCGAAC | -0.0402 |
| ATAATTAC | 0.283 |
| ACGATAAT | 0.218 |
| ACATAATG | 0.178 |
| GTCTTCCA | -0.0496 |
| GCACGTAA | -0.216 |
| CGCTATAG | -0.272 |

| Sequence | PBM E-score |
| --- | --- |
| ATCCGCAG | 0.0529 |
| ACAACTAC | 0.22 |
| GTAGTAAA | 0.2 |
| CTATCAAG | -0.00093 |
| GGGGCCTA | -0.357 |
| GTCTTCAC | 0.00144 |
| AAACCCCA | -0.123 |
| ACGCGCGC | 0.05 |
| CTATCAGA | -0.112 |
| CTGTGGTC | -0.138 |
| AGCATTAA | -0.0218 |
| TGTATTAA | 0.244 |
| ACGACCAG | -0.103 |
| AGGCTGGG | -0.307 |
| ACCTCTAA | -0.0713 |
| CGATATTC | -0.0958 |
| AATACATG | 0.256 |
| CTGTGATA | -0.0237 |
| ATCCGAAT | 0.32 |
| CGAAACTC | 0.12 |
| ATAGACTG | -0.161 |
| AGCAGGAA | -0.143 |
| AAGGATCT | -0.0932 |
| CCGGAACG | 0.202 |
| ACCGATTC | -0.153 |

| Sequence | PBM E-score |
| --- | --- |
| GCTCGTAC | -0.111 |
| GGCGGTTA | -0.0713 |
| GCAAGAGA | -0.196 |
| AGTCAGGC | -0.0218 |
| GAATCATC | 0.0169 |
| CATCTGAA | 0.0794 |
| CGTCGTCA | -0.139 |
| TCGAACCA | -0.154 |
| AAAGCCGA | -0.0256 |
| CCTACCTA | 0.00587 |
| CCGTGGGA | -0.132 |
| CAGAGCCC | -0.0247 |
| ACCCAGCC | -0.273 |
| CATGATCC | -0.0268 |
| GCGCCGAA | 0.111 |
| TAGTTAAA | 0.278 |
| GGCGGTCA | -0.181 |
| GAGGGTCC | -0.0561 |
| AACTCATG | 0.0383 |
| CGTATGTA | 0.054 |
| TACTCACA | 0.03 |
| ACGGCACG | -0.0976 |
| AATTGCAG | 0.0512 |
| GTCGAGAC | -0.12 |
| TTGCCCAA | -0.061 |

| Sequence | PBM E-score |
| --- | --- |
| CGAGCGAA | -0.0328 |
| CGTCGTAG | -0.104 |
| CTGAACTA | 0.00909 |
| AGTCCGTG | 0.431 |
| CCTTGACC | -0.0469 |
| GGCGAGAA | 0.023 |
| GCCGTGTA | -0.196 |
| TAGTCAGA | 0.00987 |
| CGCCCATA | -0.113 |
| CACATAAA | 0.105 |
| ATTGATAC | 0.199 |
| CAACACTC | 0.154 |
| GGTGTGAC | -0.332 |
| CATTCTCG | -0.032 |
| CCATGGGC | -0.0948 |
| GAGTCAAA | -0.0658 |
| AGCTAAGA | -0.0341 |
| ACTGTTGC | 0.0734 |
| GCCGACCC | -0.287 |
| ACGTCATC | -0.187 |
| GGAGAGGA | -0.189 |
| AGCAAATC | 0.142 |
| TAAATGTA | 0.23 |
| GAGGGTTA | -0.0895 |
| CCAATCCG | 0.00675 |

| Sequence | PBM E-score |
| --- | --- |
| AGGGTCAC | -0.166 |
| CCCCGCAC | -0.16 |
| AATGTAAC | 0.00444 |
| AAATCTCA | 0.00981 |
| CAGAATAC | 0.0451 |
| TGACCGCA | -0.187 |
| ATCTAGAC | -0.0479 |
| CTCGAAGA | -0.101 |
| CATCTCAA | 0.117 |
| GACTTCCA | -0.0749 |
| GTCTGAGA | -0.118 |
| CGAGTGAA | -0.0681 |
| CGTCTGCA | -0.133 |
| GAAATGTA | 0.13 |
| CGCTCAGC | -0.105 |
| AGATATGA | 0.13 |
| AAACGCCT | -0.05 |
| CAGATACG | 0.109 |
| GATCGTGA | -0.00383 |
| CCACGTCA | -0.0771 |
| TGAATTCA | 0.0862 |
| AGATGTTA | -0.037 |
| GGACATCA | 0.3 |
| AAAAAGTT | 0.0541 |
| CACCCGCA | 0.0155 |

| Sequence | PBM E-score |
| --- | --- |
| GCGCTTAC | -0.0907 |
| AACAACAT | 0.0759 |
| AGTGTAGG | -0.00484 |
| TGCGGACA | 0.242 |
| GGGCTACA | -0.103 |
| ACTCAAGT | 0.149 |
| GACATAAC | 0.247 |
| AGATTTTG | 0.131 |
| CACAGAGC | -0.106 |
| CACGTGCA | -0.192 |
| CTTAGCAA | 0.0902 |
| GAAATTCA | 0.21 |
| ACTGATTC | 0.00576 |
| AGCTTAAA | 0.0829 |
| CGGTAAGC | -0.064 |
| AACCTATG | -0.0822 |
| GTCGCGAC | 0.278 |
| CCGCAAGC | -0.238 |
| GCTTCAAA | 0.117 |
| GGACCTCA | 0.0263 |
| ATGAGGGC | -0.17 |
| ACAAAGGC | -0.0842 |
| AATGTGCG | 0.109 |
| AGAACATC | 0.0303 |
| CTAACTTC | 0.0929 |

| Sequence | PBM E-score |
| --- | --- |
| GGCACTGA | -0.201 |
| AGCTTCTG | -0.078 |
| AACGTGCC | -0.151 |
| CGTATTTA | 0.201 |
| CAGGGCCC | -0.189 |
| ACTCTCAA | 0.0103 |
| AGGCTACA | -0.151 |
| CGATCAGC | -0.098 |
| AAGGTTAG | -0.0668 |
| AGATCCCG | 0.0988 |
| GGCCAGTA | -0.139 |
| CTGTTAAC | 0.149 |
| CACCTCTA | -0.0969 |
| CCAGCACC | -0.282 |
| CCTTACCA | -0.117 |
| ACCACCCC | -0.238 |
| AATGTTAT | 0.214 |
| ACTTAAAG | -0.0784 |
| CGGCTTGA | -0.117 |
| TAAACAAA | 0.168 |
| CAACGCCC | -0.206 |
| ATCGCGTG | 0.00063 |
